The other results are listed elsewhere or left out.
Assays:
[1] = test system: HSkMC (human skeletal muscle cells); assay: cytotoxicity call (relative viability < 0.9); conditions: 10 µM
[2] = test system: HepG2; assay: cytotoxicity call (relative viability < 0.9); conditions: 10 µM
[3] = test system: S. aureus RN4220; assay: growth inhibition call (relative growth <= 0.2); conditions: 50 µM

Structure (SMILES)	cytotoxicity call [1]	cytotoxicity call [2]	growth inhibition call [3]
C[C@H](CO)N1C[C@H](C)[C@H](CN(C)C(=O)Nc2ccc(F)cc2)OCCCC[C@H](C)Oc2ccc(NC(=O)Nc3ccccc3)cc2C1=O	inactive	inactive	inactive
C[C@H]1CN([C@@H](C)CO)C(=O)CCCn2nncc2CO[C@H]1CN(C)C(=O)Nc1ccc(C(F)(F)F)cc1	inactive	inactive	active
COCCN1C[C@]23CN(C(=O)COC)C[C@@H](C[C@H]2S1(=O)=O)O3	inactive	inactive	inactive
C[C@@H]1CN([C@@H](C)CO)C(=O)Cc2cc(NC(=O)CCC(F)(F)F)ccc2O[C@H]1CN(C)S(=O)(=O)c1cn(C)cn1	inactive	inactive	inactive
COCCOC(=O)N1C(=O)[C@@]2(c3cc(C#CC4(O)CCCCCC4)ccc31)[C@H](C(=O)N1CCN(c3ncccn3)CC1)[C@H]1C(=O)O[C@H](c3ccccc3)[C@H](c3ccccc3)N1[C@@H]2c1ccc(OCCO)cc1	inactive	inactive	inactive
C[C@H]1CN([C@@H](C)CO)C(=O)c2cccc(NS(=O)(=O)c3cn(C)cn3)c2O[C@H]1CN(C)CC1CCCCC1	inactive	inactive	inactive
C[C@H]1CN([C@@H](C)CO)S(=O)(=O)c2ccc(C#Cc3ccncc3)cc2O[C@H]1CN(C)C(=O)c1ccncc1	inactive	active	inactive
C[C@@H]1CCCCO[C@@H](CN(C)Cc2ccc(Cl)c(Cl)c2)[C@@H](C)CN([C@H](C)CO)C(=O)c2cc(NC(=O)CCCN(C)C)ccc2O1	inactive	active	inactive
C[C@@]1(C(=O)O)NCCc2cc(O)c(O)cc21	inactive	inactive	inactive
O=C(C[C@@H]1CC[C@@H]2[C@H](COC[C@H](O)CN2C(=O)Nc2ccc(Cl)c(Cl)c2)O1)NCc1ccncc1	inactive	inactive	inactive
C[C@@]1(C2CC2)Cc2cnnn2CCN1	inactive	inactive	inactive
Cn1cnc(S(=O)(=O)N[C@H]2CC[C@@H](CC(=O)NCC3CC3)O[C@H]2CO)c1	inactive	inactive	inactive
C[C@H](CO)N1C[C@H](C)[C@H](CN(C)C(=O)NC2CCCCC2)OCCCC[C@H](C)Oc2ccc(NC(=O)C3CCCCC3)cc2C1=O	inactive	inactive	inactive
CNC[C@H]1Oc2cc(C#CC(C)(C)O)ccc2S(=O)(=O)N([C@@H](C)CO)C[C@@H]1C	inactive	inactive	inactive
C[C@@H]1CN([C@@H](C)CO)C(=O)c2cccc(NC(=O)C3CCOCC3)c2O[C@H]1CN(C)S(=O)(=O)c1cn(C)cn1	inactive	inactive	inactive
COCC#Cc1ccc([C@@H]2[C@H](CO)N3C(=O)CN(C(=O)c4ccncc4)C[C@@H]23)cc1	inactive	inactive	inactive
COc1ccc2c3c([nH]c2c1)[C@H](CO)N(C[C@]13CCN(CC1)Cc1ccccc1)C(=O)CN1CCOCC1	inactive	active	inactive
C[C@@H]1CN([C@H](C)CO)C(=O)Cc2cc(NC(=O)Nc3ccc(C(F)(F)F)cc3)ccc2O[C@@H]1CN(C)Cc1ccc(Cl)c(Cl)c1	active	active	inactive
COc1ccc(S(=O)(=O)N(C)C[C@H]2Oc3ccc(NC(=O)NC(C)C)cc3CC(=O)N([C@H](C)CO)C[C@H]2C)cc1	inactive	inactive	inactive
Cc1ccc(S(=O)(=O)N(C)C[C@@H]2Oc3ccc(NC(=O)Nc4ccc(C(F)(F)F)cc4)cc3C(=O)N([C@@H](C)CO)C[C@H]2C)cc1	inactive	active	inactive
COc1ccc(S(=O)(=O)Nc2ccc3c(c2)C(=O)N([C@@H](C)CO)C[C@H](C)[C@H](CN(C)C(=O)Nc2ccccc2)OCCCC[C@@H](C)O3)cc1	inactive	inactive	inactive
C[C@@H]1CN([C@H](C)CO)C(=O)Cc2cc(NC(=O)Nc3ccc(F)cc3)ccc2O[C@H]1CN(C)CC1CCCCC1	inactive	active	inactive
Cc1ccc(S(=O)(=O)N(C)C[C@H]2Oc3c(NS(=O)(=O)c4cccs4)cccc3C(=O)N([C@@H](C)CO)C[C@@H]2C)cc1	inactive	inactive	inactive
N[C@H]1CCOC2(CCCC2)C1	inactive	inactive	inactive
C[C@@H]1CCCCO[C@H](CN(C)C(=O)CCC(F)(F)F)[C@H](C)CN([C@H](C)CO)C(=O)c2cc(NC(=O)CCC(F)(F)F)ccc2O1	inactive	inactive	inactive
